According to the supplement of paper PMC3334620:
In all, about 33,000 sequences were measured (“E-score (-0.5 to 0.5)”: median about -0.035, highest 2% from about 0.34 on). The list shows a part of the results.

Target: T1, Mot3 (UniProt P54785)
T1 sequence: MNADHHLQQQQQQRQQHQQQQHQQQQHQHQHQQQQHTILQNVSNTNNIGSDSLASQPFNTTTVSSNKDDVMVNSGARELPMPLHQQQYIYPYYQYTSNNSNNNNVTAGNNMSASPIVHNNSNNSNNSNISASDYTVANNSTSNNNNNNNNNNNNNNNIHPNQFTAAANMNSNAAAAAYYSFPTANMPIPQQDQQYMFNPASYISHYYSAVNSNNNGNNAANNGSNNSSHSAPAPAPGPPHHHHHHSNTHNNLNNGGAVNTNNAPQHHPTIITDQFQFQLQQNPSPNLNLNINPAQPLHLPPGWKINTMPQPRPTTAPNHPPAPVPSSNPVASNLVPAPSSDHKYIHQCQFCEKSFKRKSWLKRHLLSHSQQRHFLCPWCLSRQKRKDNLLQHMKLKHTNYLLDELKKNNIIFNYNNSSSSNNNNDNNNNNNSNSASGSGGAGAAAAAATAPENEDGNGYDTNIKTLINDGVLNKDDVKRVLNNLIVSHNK
Assay: PBM E-score (8-mer binding enrichment) (E-score (-0.5 to 0.5)); higher = stronger / more preferred TF binding; most listed sequences are background and not binding sites
Conditions: protein concentration: 200 nM; construct: GST-full length
How it was run: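 Yeast transcription factors, full-length or as DNA-binding domains, were expressed with a GST tag using PURExpress in vitro transcription/translation. At about 100-200 nM they were applied to universal all-10-mer Agilent arrays, double-stranded by primer extension on fresh or once-stripped slides. Fluorescent anti-GST detected bound protein, and masliner normalised the scans. E-scores for ungapped eight-base words, pooled with reverse complements, came from the Universal PBM Analysis Suite.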

| Sequence | PBM E-score |
| --- | --- |
| AGACCTCG | -0.189 |
| GATAAGTA | 0.0457 |
| ACCTGTAC | 0.199 |
| AACCCCAA | 0.00599 |
| ATTCCAGG | 0.189 |
| ACCCGACA | -0.0489 |
| CCTATATA | 0.119 |
| CGATTGAC | 0.147 |
| ATACGGGA | -0.127 |
| AGACTCCG | -0.222 |
| CAAGCTAA | 0.00884 |
| ACGCCAGA | -0.0298 |
| AGGGGAGG | -0.236 |
| ATCCACAT | 0.0728 |
| AAACAGTG | 0.15 |
| CGCGGTGC | -0.134 |
| AGCGTCCA | -0.172 |
| AATATTTG | 0.0798 |
| CTTCCTGA | -0.0128 |
| CAACTTCG | 0.0654 |
| CCCGGCCG | -0.319 |
| GCGTCCTA | -0.0737 |

| Sequence | PBM E-score |
| --- | --- |
| AATACTGG | -0.133 |
| CCCAGCAC | -0.175 |
| GGGTACCC | -0.304 |
| CAAAGCCA | 0.0685 |
| CATACATC | 0.079 |
| CGGTTGAC | -0.0767 |
| AGATTCTG | -0.111 |
| CATATCAG | -0.13 |
| GATTGCGA | -0.0815 |
| CTGCTAGA | -0.159 |
| CAGACCCA | -0.184 |
| CGTAAAGA | 0.239 |
| GACTTACA | 0.145 |
| CACTAGTA | 0.0592 |
| GCGGTGCC | 0.305 |
| GATGCCTA | 0.439 |
| CCCGCTAA | -0.231 |
| GAGGAAAC | -0.027 |
| CAGTGGGG | -0.258 |
| ACCAGGCC | -0.0646 |
| TAAATCGA | 0.0828 |
| ATCGAGTC | -0.173 |

| Sequence | PBM E-score |
| --- | --- |
| CTGCTGTC | -0.0996 |
| AACAGATA | 0.128 |
| ACCTATAA | 0.122 |
| CCGAAGCA | 0.0254 |
| CAACATTG | 0.245 |
| AGCGCGGG | -0.00632 |
| ATCCGACA | -0.165 |
| CACCACAC | 0.00987 |
| CGTGACAG | -0.064 |
| AGACGATG | -0.0146 |
| GACTTTCC | 0.0833 |
| CATGTAGA | 0.39 |
| GCTGGATA | 0.0442 |
| ATCTGCAC | -0.214 |
| AGTTTCGC | -0.252 |
| ACCTTAAC | 0.173 |
| GGTGTATA | 0.0111 |
| GATGCCAC | -0.392 |
| ACCAGCCC | -0.166 |
| ATTAAGAG | -0.041 |
| AACCGTCC | -0.278 |
| GGCGAAAA | 0.00026 |

| Sequence | PBM E-score |
| --- | --- |
| AGCAGAGA | -0.22 |
| ACGAAATG | 0.0717 |
| AATGCCGA | -0.249 |
| CACCCGAA | -0.0326 |
| GTCGTCGA | -0.124 |
| AGCGCCGC | -0.148 |
| CCGAGCAC | -0.0689 |
| AGAAGGCA | 0.475 |
| GAAGTCCA | -0.216 |
| GCATTTAA | 0.175 |
| CCATCGCG | -0.0312 |
| AATCGAAT | -0.00625 |
| GACTAGCA | -0.132 |
| GCGGCAGC | -0.357 |
| TAACTATA | 0.0299 |
| GCCCAGGA | -0.0653 |
| CTATAATC | -0.0237 |
| CTGCCGCA | -0.351 |
| CTTTAGAA | 0.143 |
| ACGTAGGA | 0.184 |
